{"source": "PubChem BioAssay AID1159614", "about": "(National Center for Advancing Translational Sciences (NCATS), 2016)", "note": "Hit rate of the full screen: of about 45,000 compounds, about 65 (0.1%) were called active. The call rests on the fitted dose curve; in most records, active means well fitted activation curve with a large enough effect; inconclusive means small, poorly fitted or top-dose-only effect; inactive means no such curve, though single readings can be large or run the other way. The list shows a part of the results.", "data": [{"biological_target": "Galactocerebrosidase (Homo sapiens) (UniProt P54803)", "sequence (P54803 whole entry, looked up)": "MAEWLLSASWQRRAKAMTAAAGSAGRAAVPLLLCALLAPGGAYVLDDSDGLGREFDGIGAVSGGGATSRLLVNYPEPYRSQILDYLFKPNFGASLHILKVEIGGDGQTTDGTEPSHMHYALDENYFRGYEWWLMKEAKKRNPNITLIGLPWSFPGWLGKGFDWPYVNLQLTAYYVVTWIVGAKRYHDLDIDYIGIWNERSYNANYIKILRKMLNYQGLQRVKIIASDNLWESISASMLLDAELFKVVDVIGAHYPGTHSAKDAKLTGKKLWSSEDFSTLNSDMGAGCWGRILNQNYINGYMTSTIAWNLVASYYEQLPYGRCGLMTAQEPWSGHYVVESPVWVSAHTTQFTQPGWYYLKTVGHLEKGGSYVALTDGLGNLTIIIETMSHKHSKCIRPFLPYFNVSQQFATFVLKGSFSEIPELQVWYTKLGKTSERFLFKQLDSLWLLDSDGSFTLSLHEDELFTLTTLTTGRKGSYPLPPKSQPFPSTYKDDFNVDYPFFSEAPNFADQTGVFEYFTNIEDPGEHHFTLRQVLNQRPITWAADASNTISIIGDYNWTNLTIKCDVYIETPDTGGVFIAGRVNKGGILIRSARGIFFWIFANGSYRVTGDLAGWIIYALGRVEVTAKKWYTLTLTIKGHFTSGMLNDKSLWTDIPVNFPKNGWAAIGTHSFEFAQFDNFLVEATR", "assay": "A Novel Cell-Based Assay to Identify Small Molecules for B -Galactocerebrosidase; further: 0% is about no effect; nearly all actives have a fitted effect of over 65% in size", "details": "145M-Twi-hGALC-G270D cells (Twitcher mouse brain line with human GALC G270D), HMU-beta-Gal fluorescence, 48 h; series mostly up to 57.5 µM; activation: at the top concentration", "procedure,_shortened": "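Live 145M-Twi cells (Twitcher mouse brain-derived, GALC-null) stably expressing human GALC-G270D, with a wild-type GALC line, were compound-treated. Residual GALC activity was then read as fluorescence from 0.1 mM final HMU-β-gal at pH 5.2; higher signal means activation.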", "values": [{"smiles": "CCN1CCC(N(Cc2cccc(OC)c2)C(=O)Nc2ccc(C)cc2Cl)CC1", "activation": "inactive: 1.17%"}, {"smiles": "COC(=O)C1=C(C)NC(C)=C(C(=O)OCCc2ccc(N3CCN(C(c4ccccc4)c4ccccc4)CC3)cc2)C1c1cccc([N+](=O)[O-])c1", "note": "(stereo not drawn)", "activation": "inactive: -16.8%"}, {"smiles": "CCC(C(=O)Nc1cccc(C#N)c1)n1c(=O)c(-c2ccccc2NC(C)=O)nc2ccccc21", "note": "(stereo not drawn)", "activation": "inactive: -14.7%"}, {"smiles": "Cc1ccc(S(=O)(=O)Nc2cc3c(cc2N2CCOCC2)n(C)c(=O)n3C)c(C)c1", "activation": "inactive: -18.5%"}, {"smiles": "Cc1ccc2c(c1)c1c(c(=O)n(Cc3ccccc3)c(=O)n1CC(=O)Nc1ccccc1C)n2C", "activation": "inactive: 5.23%"}, {"smiles": "Cc1ccc(NC(=O)Cn2c(-c3ccc4c(c3)OCO4)cn(-c3ccccc3)c2=O)cc1", "activation": "inactive: -21%"}, {"smiles": "COc1ccc(-c2c3c(=O)n(C)c(=O)n(C)c3c3c(-c4ccc(C)cc4)nc4ccccc4n23)cc1", "activation": "inactive: -24.3%"}, {"smiles": "Cc1cc(O)c(C(c2ccccc2Cl)N2CCN(c3ccccc3)CC2)c(=O)n1Cc1ccco1", "note": "(stereo not drawn)", "activation": "inactive: -0.869%"}, {"smiles": "Cc1ccc(C)c(NC(=O)CCCn2nc(C)c3sc4ccccc4c3c2=O)c1", "activation": "inactive: -6.96%"}, {"smiles": "COc1cc(NC(=O)c2cnn(-c3cccc(F)c3)c2C2CCNCC2)cc(OC)c1OC", "activation": "inactive: -27.6%"}, {"smiles": "CCc1nnc(NC(=O)CSCc2cc(=O)c3ccc(C)cc3[nH]2)s1", "activation": "inactive: 6.99%"}, {"smiles": "COc1ccc(NC(=O)CN(Cc2ccccc2)S(=O)(=O)c2ccc3nc(C)sc3c2)cc1", "activation": "inactive: 6.38%"}, {"smiles": "COc1cc(CN(C(=O)COc2ccc(C)c(C)c2)c2ccccn2)cc(OC)c1OC", "activation": "inactive: -3.93%"}, {"smiles": "CCCN(CCC)CCNC(=O)c1cc2c(-c3ccccc3F)nn(C)c2s1", "activation": "inactive: -7.98%"}, {"smiles": "O=C(NCc1ccc(F)cc1)c1ccc(NC(=O)N2CC3CCCN3c3ccccc32)cc1", "note": "(stereo not drawn)", "activation": "inactive: -9.97%"}, {"smiles": "COCCNC(=O)C1CCCN(S(=O)(=O)c2ccc3c(ccn3C)c2)C1", "note": "(stereo not drawn)", "activation": "inactive: -17.6%"}, {"smiles": "CCOc1ccc(-c2cnc(NCc3ccc(OC)cc3OC)n2C)cc1", "activation": "inactive: -10%"}, {"smiles": "Cc1ccc(NC(=O)c2cccn2-c2nnc(N3CCCCC3)s2)cc1Cl", "activation": "inactive: -18.8%"}, {"smiles": "O=C1c2oc3ccc(F)cc3c(=O)c2C(c2cccc([N+](=O)[O-])c2)N1CCCN1CCOCC1", "note": "(stereo not drawn)", "activation": "inactive: -13.2%"}, {"smiles": "Cn1nc(C(=O)N2CCN(c3ccccc3F)CC2)c2c1-c1ccccc1SC2", "activation": "inactive: 0.496%"}, {"smiles": "CCN(CC)CCNC(=O)Cn1ncc2c([nH]c3ccccc32)c1=O", "activation": "inactive: -7.62%"}, {"smiles": "CCCCN(CC)CCCNC(=O)c1cc2c(-c3ccc(OC)c(OC)c3)nn(C)c2s1", "activation": "inactive: -4.72%"}, {"smiles": "COc1ccc(CNC(=O)COCc2cc(-c3cccs3)on2)cc1OC", "activation": "inactive: -5.14%"}, {"smiles": "CCCCNC(=O)CCCn1c(=O)c2ccccc2n(Cc2ccccc2C)c1=O", "activation": "inactive: -4.6%"}, {"smiles": "CCc1c(C)sc2c1CCN(Cc1ccc(F)cc1)C2c1ccccc1", "note": "(stereo not drawn)", "activation": "inactive: -10.4%"}, {"smiles": "Cc1ccc(CSc2cn(CC(=O)N3CCCCC3)c3ccccc23)cc1", "activation": "inactive: -2.93%"}, {"smiles": "CCc1ccc(CN(C(=O)c2cc3ccccc3oc2=O)C2CCS(=O)(=O)C2)cc1", "note": "(stereo not drawn)", "activation": "inactive: -13.4%"}, {"smiles": "Cc1ccc2nc(N(Cc3cccnc3)C(=O)C3COc4ccccc4O3)sc2c1", "note": "(stereo not drawn)", "activation": "inactive: -3.06%"}, {"smiles": "CC(=O)c1ccc(NC(=O)c2ncn(-c3ccccc3)n2)cc1", "activation": "inactive: -16.8%"}, {"smiles": "COc1ccc(Cl)cc1NC(=O)CCC(=O)c1ccc(C)cc1", "activation": "inactive: -17.9%"}, {"smiles": "Cc1ccc(C2=Nc3ccccc3N(CC(=O)Nc3cccc(F)c3)C(=O)C2)cc1C", "activation": "inactive: -3.67%"}, {"smiles": "COc1ccc(-c2noc(-c3ccc(NCc4ccccc4OC)c([N+](=O)[O-])c3)n2)cc1", "activation": "inactive: -12.4%"}, {"smiles": "CC(=O)c1[nH]c(C)c(C(=O)NCCc2ccc(C)cc2)c1C", "activation": "inactive: -13.6%"}, {"smiles": "CN(C)C(=O)CNC(=O)Cc1ccccc1", "activation": "inactive: -9.62%"}, {"smiles": "CC(=O)Nc1cccc(C(=O)NCc2ccc3c(c2)CCN3C(C)=O)c1", "activation": "inactive: -6.72%"}, {"smiles": "CCn1cc(C(=O)NCCc2ccccc2)c(=O)c2cc(S(=O)(=O)N(C)C3CCCCC3)ccc21", "activation": "inactive: -2.31%"}, {"smiles": "CCOc1ccccc1N(C)C(=O)C1CCCN(c2ncnc3onc(-c4ccc(F)cc4)c23)C1", "note": "(stereo not drawn)", "activation": "inactive: -12.9%"}, {"smiles": "Cc1c(CCNC(=O)Cc2ccccc2)sc2nc(-c3ccc(F)cc3)nn12", "activation": "inactive: -15.3%"}, {"smiles": "O=C(CN1CCN(Cc2ccc(Cl)cc2)C1=O)NCc1ccc(F)cc1", "activation": "inactive: -2.15%"}, {"smiles": "Cc1cc(C)c(NC(=O)CSc2nccn2Cc2ccco2)c(C)c1", "activation": "inactive: -18.2%"}, {"smiles": "Cc1ccc(NC(=O)CCCn2c(=O)c3cccn3c3cccnc32)c(Cl)c1", "activation": "inactive: -8.69%"}, {"smiles": "CN(C)CCCNc1oc(/C=C/c2ccc(F)cc2)nc1C#N", "activation": "inactive: -11.5%"}, {"smiles": "O=c1oc2c3c(ccc2c2ccccc12)OCN(Cc1cccc(Cl)c1)C3", "activation": "inactive: -17.4%"}, {"smiles": "COc1ccc(-c2cc(=O)c3cc(OCC(=O)OC(C)C)ccc3o2)cc1", "activation": "inactive: -10.2%"}, {"smiles": "Cc1cc(C)c(NC(=O)CCn2c(=O)c3cccn3c3ccccc32)c(C)c1", "activation": "inactive: -9.86%"}, {"smiles": "CCN1CCN(C(c2ccc(SC)cc2)c2c(O)cc(C)n(Cc3ccco3)c2=O)CC1", "note": "(stereo not drawn)", "activation": "inactive: -16.2%"}, {"smiles": "COc1ccccc1NC(=O)C1CCN(S(=O)(=O)c2ccc3[nH]c4c(c3c2)CCCCC4)CC1", "activation": "inactive: -16.9%"}, {"smiles": "O=C(COC(=O)C(Cc1c[nH]c2ccccc12)NC(=O)c1ccc(Cl)cc1)c1ccc(Cl)cc1", "note": "(stereo not drawn)", "activation": "inactive: -14.3%"}]}]}
